Results as given in paper PMC5700166.
This is a selection; strong and weak results do not stand in their true shares. The list includes weakly bound sequences.

Assays:
Assay in all cases: protein-binding microarray (PBM)
Conditions in all cases: PBM: ~300 nM protein, 6 mM HEPES pH 7.8, 80 mM KCl, 0.5 mM EDTA, 0.5 mM EGTA, 6% glycerol, 35 ng/ul poly-dIdC, 1% milk, 1 h, room temperature; Ap Aiptasia and Nv Nematostella (sea anemones) / Co Capsaspora / Aq Amphimedon (sponge) / Dm Drosophila / Hu human; RHD is the Rel homology domain; high values mean tight binding; most listed sequences are background and not binding sites; double strand, one strand shown
GST-Ap-NF-kB RHD = target: T1, GST-Ap-NF-kB RHD (UniProt A0A913YAJ5)
T1 sequence: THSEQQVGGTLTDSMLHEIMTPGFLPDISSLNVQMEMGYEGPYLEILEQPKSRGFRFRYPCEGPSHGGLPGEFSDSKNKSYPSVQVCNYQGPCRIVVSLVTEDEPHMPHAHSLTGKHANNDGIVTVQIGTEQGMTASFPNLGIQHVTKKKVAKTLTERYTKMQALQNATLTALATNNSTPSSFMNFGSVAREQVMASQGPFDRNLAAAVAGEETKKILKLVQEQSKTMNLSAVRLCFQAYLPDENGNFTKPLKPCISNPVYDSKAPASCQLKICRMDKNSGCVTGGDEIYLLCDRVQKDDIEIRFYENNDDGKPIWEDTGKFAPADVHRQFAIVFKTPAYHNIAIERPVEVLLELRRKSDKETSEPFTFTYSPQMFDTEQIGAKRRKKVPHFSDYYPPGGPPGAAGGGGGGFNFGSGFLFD

[1] = target: T2, GST-Nv-NF-kB (Cys allele) (UniProt E5G601)
T2 sequence: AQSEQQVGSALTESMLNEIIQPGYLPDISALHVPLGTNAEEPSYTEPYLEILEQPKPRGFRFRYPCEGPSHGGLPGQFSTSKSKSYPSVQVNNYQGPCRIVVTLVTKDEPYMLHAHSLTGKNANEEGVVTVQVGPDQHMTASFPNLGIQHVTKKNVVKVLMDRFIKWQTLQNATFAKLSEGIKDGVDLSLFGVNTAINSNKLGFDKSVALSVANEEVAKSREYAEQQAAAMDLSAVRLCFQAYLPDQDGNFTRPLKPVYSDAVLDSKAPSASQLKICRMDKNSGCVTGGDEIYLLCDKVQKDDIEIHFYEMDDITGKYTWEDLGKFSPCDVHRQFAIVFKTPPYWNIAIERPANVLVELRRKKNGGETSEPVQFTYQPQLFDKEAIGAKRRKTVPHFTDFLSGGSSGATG

GST-Co-NF-kB = target: T3, GST-Co-NF-kB (UniProt F1ARL5)
T3 sequence: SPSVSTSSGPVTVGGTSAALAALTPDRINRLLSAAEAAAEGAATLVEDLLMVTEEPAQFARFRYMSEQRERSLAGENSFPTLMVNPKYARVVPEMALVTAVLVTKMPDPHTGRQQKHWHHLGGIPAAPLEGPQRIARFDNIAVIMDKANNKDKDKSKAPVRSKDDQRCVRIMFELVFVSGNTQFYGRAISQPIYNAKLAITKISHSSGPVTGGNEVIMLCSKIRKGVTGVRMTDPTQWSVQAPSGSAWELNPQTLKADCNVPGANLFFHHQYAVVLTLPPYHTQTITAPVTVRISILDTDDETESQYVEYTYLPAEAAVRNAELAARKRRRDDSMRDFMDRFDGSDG

GST-Dm-Relish = target: T4, GST-Dm-Relish (UniProt Q94527)
T4 sequence: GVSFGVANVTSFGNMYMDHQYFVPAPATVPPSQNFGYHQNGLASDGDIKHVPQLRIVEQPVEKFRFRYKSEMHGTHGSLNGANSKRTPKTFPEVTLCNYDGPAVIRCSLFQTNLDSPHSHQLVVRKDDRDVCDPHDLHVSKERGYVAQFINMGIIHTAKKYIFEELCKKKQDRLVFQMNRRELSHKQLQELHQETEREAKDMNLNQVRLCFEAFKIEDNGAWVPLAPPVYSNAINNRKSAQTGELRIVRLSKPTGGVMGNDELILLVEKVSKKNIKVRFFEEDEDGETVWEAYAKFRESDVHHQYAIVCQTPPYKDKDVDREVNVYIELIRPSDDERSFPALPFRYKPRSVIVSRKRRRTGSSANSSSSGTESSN

Sequence	binding signal (GST-Ap-NF-kB RHD) [z-score]	binding signal [1] [z-score]	binding signal (GST-Co-NF-kB) [z-score]	binding signal (GST-Dm-Relish) [z-score]
CCGATTAACATCAGGAATCGCCCTGATGTTAATCGGGTCTTGATTCGCTTGACGCTGCTG	0.0938	0.377	0.0732	0.569
CCGATTAACATCAGTACGGGAAATGATGTTAATCGGGTCTTGATTCGCTTGACGCTGCTG	1.79	3.11	2.65	0.869
CCGATTAACATCACCCAGTTCCCTGATGTTAATCGGGTCTTGATTCGCTTGACGCTGCTG	1.22	1.21	1.44	0.726
CCGATTAACATCAGGAATGTCCATGATGTTAATCGGGTCTTGATTCGCTTGACGCTGCTG	-0.569	-0.289	-0.635	0.773
CCGATTAACATCACGGGATGTCCTGATGTTAATCGGGTCTTGATTCGCTTGACGCTGCTG	1.47	0.269	0.351	3.42
CCGATTAACATCAAAGAATTTCCTGATGTTAATCGGGTCTTGATTCGCTTGACGCTGCTG	0.0491	0.0546	0.615	0.631
CCGATTAACATCAGGGGTTCACCTGATGTTAATCGGGTCTTGATTCGCTTGACGCTGCTG	3.84	2.71	1.45	8.89
CCGATTAACATCAACAAAATTCCTGATGTTAATCGGGTCTTGATTCGCTTGACGCTGCTG	0.0616	0.251	0.862	1.6
CCGATTAACATCACGGCTTTTCCTGATGTTAATCGGGTCTTGATTCGCTTGACGCTGCTG	0.195	-0.519	-0.249	0.18
CCGATTAACATCATGTTGGGAAATGATGTTAATCGGGTCTTGATTCGCTTGACGCTGCTG	1.02	2.29	2.51	0.16
CCGATTAACATCACGGCATTTCCTGATGTTAATCGGGTCTTGATTCGCTTGACGCTGCTG	0.0612	0.22	-0.00453	0.508
CCGATTAACATCAGGGGCTGTACTGATGTTAATCGGGTCTTGATTCGCTTGACGCTGCTG	2.83	3.09	0.949	3.56
CCGATTAACATCACGGGGAAAACTGATGTTAATCGGGTCTTGATTCGCTTGACGCTGCTG	7.27	7.6	10.2	5.68
CCGATTAACATCAGAAATTACCATGATGTTAATCGGGTCTTGATTCGCTTGACGCTGCTG	0.803	1.45	0.956	2.33
CCGATTAACATCAGGATTTTCCATGATGTTAATCGGGTCTTGATTCGCTTGACGCTGCTG	-0.278	-0.683	0.229	1.28
CCGATTAACATCAGGAAATTTCATGATGTTAATCGGGTCTTGATTCGCTTGACGCTGCTG	0.00928	0.038	-0.437	0.374
CCGATTAACATCAAGGAAATTTCTGATGTTAATCGGGTCTTGATTCGCTTGACGCTGCTG	0.254	0.156	0.84	0.908
CCGATTAACATCAAAAACTTTCCTGATGTTAATCGGGTCTTGATTCGCTTGACGCTGCTG	0.569	0.779	0.573	2.34
CCGATTAACATCACGGAATGTCCTGATGTTAATCGGGTCTTGATTCGCTTGACGCTGCTG	-0.211	0.078	-0.433	0.367
CCGATTAACATCAAAAATCCGGTTGATGTTAATCGGGTCTTGATTCGCTTGACGCTGCTG	-0.244	0.0719	-0.726	0.978
CCGATTAACATCACGGAAACTCCTGATGTTAATCGGGTCTTGATTCGCTTGACGCTGCTG	-0.682	-0.657	-0.198	1.23
CCGATTAACATCACGGAAAAGCCTGATGTTAATCGGGTCTTGATTCGCTTGACGCTGCTG	0.138	-0.109	-0.0482	0.243
CCGATTAACATCACGGATATTCCTGATGTTAATCGGGTCTTGATTCGCTTGACGCTGCTG	-0.189	0.132	0.536	0.37
CCGATTAACATCAAGGGGACTTCTGATGTTAATCGGGTCTTGATTCGCTTGACGCTGCTG	7.92	7.59	2.41	7.45
CCGATTAACATCACGGACTGTCCTGATGTTAATCGGGTCTTGATTCGCTTGACGCTGCTG	0.0815	0.267	-0.58	-0.00432
CCGATTAACATCAAACCCTACTGTGATGTTAATCGGGTCTTGATTCGCTTGACGCTGCTG	0.166	0.304	0.776	0.374
CCGATTAACATCAAAATTTCCGTTGATGTTAATCGGGTCTTGATTCGCTTGACGCTGCTG	-0.159	0.00738	0.537	0.911
CCGATTAACATCACGGAAAATCCTGATGTTAATCGGGTCTTGATTCGCTTGACGCTGCTG	0.121	-0.243	0.671	1.04
